Experimental data published in PubChem BioAssay AID434955 (Southern Research Specialized Biocontainment Screening …, 2010).
Some of the results follow. Shown are side measurements of this screen, not its main read-out; they come without a call. The list favours compounds with an active or inconclusive main result.

Assay: beta-lactam sensitization of Mtb H37Rv, H37Rv (AID 434955);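 further: growth measured after seven days incubation then overnight dye step; 0% = bacteria only wells and 100% = bacteria with antibiotic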
Details: M. tuberculosis H37Rv growth with meropenem, percent inhibition; measured here: primary screen without meropenem; at 25 µM

Compound | inhibition [%]
COc1ccc([C@H]2CC(=O)C=C(c3cccc(C(C)C)c3)C2)cc1OC | 79.7
CCOC(=O)N1CCN(C(=O)c2cc3n(n2)C(C(F)(F)F)CC(c2ccc4c(c2)OCO4)N3)CC1 (stereo not drawn) | 8.18
O=C(CCN1CCOCC1)c1ccc(N2CCCCC2)cc1 | 8.87
COc1ccc(-c2c(NC(=O)C(C)C)n(C)c3ccccc3c2=O)cc1 | -3.55
Cc1ccc(C(=O)N/C(=C\c2ccc(-c3ccccc3[N+](=O)[O-])o2)C(=O)NCCCN(C)C)cc1 | -2.74
CCOc1ccc(NC(=O)c2c(NC(=O)CNCCN3CCOCC3)sc3c2CCC3)cc1 | 95.5
COc1cc(-c2nc3ccc4ccccc4c3c3c2CCC3)ccc1O | -4
Cc1ccc(-c2cc(-c3ccccc3)nc(N/N=C/c3cccnc3)n2)cc1 | 99.6
CC1(C)CC(=O)c2cc(OCC(=O)NCCCN3CCN(c4ccc(F)cc4)CC3)ccc2O1 | -0.89
O=C1/C(=C/c2ccncc2)CCc2ccccc21 | 20.6
CSCCCN1CCC(n2nccc2NC(=O)CCCc2ccccc2)CC1 | -0.66
COC(=O)C1=C(C)NC(=O)/C1=C\c1cc(C)n(-c2cc(C)cc(C)c2)c1C | 36.3
CC(C)C[C@H](NC(=O)OC(C)(C)C)C(=O)NCC1CCC(C(=O)N[C@@H](Cc2ccccc2)C(=O)O)CC1 (stereo partly drawn) | -2.32
COCC(=O)N1CCC(Oc2ccc(C(=O)NC3CCOC(C)(C)C3)cc2)CC1 (stereo not drawn) | -1.42
CC(=O)Nc1ccc(NC(=O)CN(c2ccc(F)cc2)S(=O)(=O)c2ccc3c(c2)OCCO3)cc1 | -3.52
C=CCNC(=S)NC(=O)c1csc([N+](=O)[O-])c1 | 18.2
Cn1nnnc1Sc1ncnc2scc(-c3cccc(F)c3)c12 | 32.3
O=C1c2cccc3cccc(c23)C(=O)N1c1nccs1 | -2.67
COc1ccc(N2CCN(C(=O)CCCC(=O)c3ccccc3)CC2)cc1 | -0.73
Cc1cccnc1NC(=O)c1c(O)c2cccc3c2n(c1=O)CCC3 | 6.41
COc1ccc(C(=O)CCN2CCN(c3ccccc3OC)CC2)cc1 | 5.63
Cc1cccc(Nc2nnc(SCC(=O)c3ccc(Br)s3)s2)c1C | 0.19
COc1ccc(NC2CCCN(C(=O)COc3ccc(C)cc3)C2)cc1 (stereo not drawn) | 76.4

Compound | inhibition [%]
CCCCc1nc(C(N)=O)c2[nH]c(=O)n(-c3ccc(OC)c(OC)c3)c2n1 | -2.22
Cc1ccc(CNC(=O)C2CCN(C(=O)c3cccc(Cl)c3)CC2)cc1 | 11.9
O=C(CC1C(=O)NCCN1C(=S)Nc1ccccc1)Nc1ccc2c(c1)OCCO2 (stereo not drawn) | 1.3
N/C(=N\c1nc2ccccc2o1)NC(=O)c1ccccc1Br | 37.8
Cc1ccc(NC(=O)c2sc(N)nc2C)cc1 | 3.82
O=c1[nH]c(Cc2ccccc2)nc2c1oc1ccccc12 | -6.95
Cc1cc2c(cc1C)N(C(=O)CSC1=NCCS1)C(C)(C)c1ssc(=S)c1-2 | 5.99
Cc1cc2c(cc1S(=O)(=O)Nc1cccc(C)c1C)n(C)c(=O)c(=O)n2C | 5.43
COc1ccc(S(=O)(=O)Cc2ccc(C(=O)NC3CC3)o2)cc1 | -14.2
COc1ccc([N+](=O)[O-])cc1C1NN=C(c2ccccc2O)S1 (stereo not drawn) | 29.1
CCc1ccccc1NS(=O)(=O)c1cc2c(cc1C)n(C)c(=O)c(=O)n2C | -6.35
CCn1cc(C(=O)Nc2ccc(OC)c(OC)c2)c2cc(OC)c(OC)cc2c1=O | -6.94
COc1ccc(NC(=O)c2oc3ccccc3c2NC(=O)C2CC2)cc1OC | 4.83
CCOC(=O)c1c(C)[nH]c(C(=O)COC(=O)CCC2CCCC2)c1C | 10.1
Cc1[nH]c(C)c(S(=O)(=O)NCc2ccc(F)cc2)c1C(=O)N1CCCC1 | -5.83
Cc1cc(-c2nnc(CCC(=O)NCCc3ccccc3F)o2)no1 | 3.41
Cc1conc1NC(c1cccs1)c1ccc2cccnc2c1O (stereo not drawn) | 23.6
Cc1cccc(Nc2nc(C)nc3c2oc2ccccc23)c1 | 84.6
S=c1[nH]c2ncccc2o1 | -10.1
Cc1noc(C)c1CSc1nnc2ccc3ccccc3n12 | -5.77
COc1ccc(-c2cc(C(=O)N3CCCCC3)c3ccccc3n2)cc1OC | 3.3
COc1ccc(OC)c(C(=O)c2ccc(C(=O)N3CCCCC3)cc2)c1 | -8.89
COc1ccc(CNC(=O)C2CCCN(S(=O)(=O)c3ccc(F)cc3)C2)cc1 (stereo not drawn) | 7.47

Compound | inhibition [%]
O=C(CCN1C(=O)/C(=C/c2ccccc2Cl)SC1=S)Nc1cccnc1 | 6.91
CCCCCOC(=O)c1ccccc1C(=O)O | -4.73
COCc1ccc(C(=O)N2CCCC(Nc3ccc(F)c(F)c3)C2)s1 (stereo not drawn) | 2.1
CC1CCCC(NC(=O)CN2C(=O)c3cccnc3Oc3ccc(Cl)cc32)C1C (stereo not drawn) | 6.7
CCc1ccccc1-n1c(-c2ccncc2)n[nH]c1=S | -3.23
Cc1nn(C)c(C(=O)N/N=C/c2ccncc2)c1Cl | 1.33
C/C(=N\Nc1cc(Cl)nc(C)n1)c1ccc(C)cc1 | 66.8
C=CCNC(=O)/C(C#N)=C/c1c(N2CCCCCC2)nc2ccccn2c1=O | -3.1
CC(=O)c1cnc(N2CCCCC2)nc1C | -0.67
O=C(NCCCCNC(=O)c1cccnc1)c1cccnc1 | -3.39
Cc1ccc2nc3c(cc(C(N)=S)c(=N)n3CCCOC(C)C)c(=O)n2c1 | 0.48
Cc1ccc(C)n1-c1nnc(N2CCC(C(=O)NCCCN3CCN(C)CC3)CC2)s1 | 0.64
O=c1[nH]nc(C(F)(F)F)c2nnn(Cc3ccccc3Cl)c12 | 8.59
COc1cc(CNCCO)cc(Br)c1OCc1ccccc1Cl | 22.8
Nc1nc(SCc2ccc(Cl)cc2Cl)nc2nc3c(cc12)CCCC3 | -5.06
O=C(OCn1nnc2ccccc2c1=O)c1ccc2c(=O)n3c(nc2c1)CCC3 | 58.4
Cc1ccc(C)c(NC(=O)C(Sc2nc3ccccc3c(=O)n2CC(C)C)c2ccccc2)c1 (stereo not drawn) | 11.2
CCc1cccc(NC(=O)C2CCCN2S(=O)(=O)c2ccc3c(c2)CC(C)N3C(C)=O)c1 (stereo not drawn) | -1.96
CCN(CC(=O)Nc1cc(Cl)ccc1C)C(=O)c1ccc(=O)n(Cc2ccccc2)n1 | -1.13
COc1ccc(N2C(=O)c3ccccc3NC2c2ccc(OC)c(Cn3nnc4ccccc43)c2)cc1 (stereo not drawn) | -3.53
CC1SCC(NC(=O)c2ccc(Cl)cc2)CS1 (stereo not drawn) | 11.5
Cc1cccc(NC(=O)[C@H](C)NC(=O)[C@@H]2Cc3ccccc3CN2C(=O)OC(C)(C)C)c1 | -13.4
